# Assay results published in the supplement of paper PMC8728848.
# Some of the results follow.
# B1: CFEM-PPl (Pichia pastoris), F2QPV1 (protein)
# chain: AVATPPACLLACAAEVVKESSDCDALNNIQCICENEGSAIHACLESTCPDGLSSTALQSFEDVCESVGTEANLDE
# Columns and labels:
# Test in all cases: glycan array binding signal (z-score within array); higher = stronger binding
# Conditions in all cases: glycan notation: IUPAC condensed, linker removed
# [1] = target: Neu5Ac(a2-3)Gal(b1-4)GlcNAc(b1-2)[Neu5Ac(a2-3)Gal(b1-4)GlcNAc(b1-4)]Man(a1-3)[GlcNAc(b1-4)][Neu5Ac(a2-3)Gal(b1-4)GlcNAc(b1-2)[Neu5Ac(a2-3)Gal(b1-4)GlcNAc(b1-6)]Man(a1-6)]Man(b1-4)GlcNAc(b1-4)GlcNAc
# Summary of the method: (§1)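 The Consortium for Functional Glycomics database supplied 3228 glycan arrays, of which those lacking an available protein sequence were dropped. The binding signal, a within-array Z-score, was averaged across arrays of the same protein sequence and across linkers. Negative scores can be read as non-binding.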
# [2] = target: Neu5Ac(a2-3)Gal(b1-4)GlcNAc(b1-2)[Neu5Ac(a2-3)Gal(b1-4)GlcNAc(b1-4)]Man(a1-3)[GlcNAc(b1-4)][Neu5Ac(a2-3)Gal(b1-4)GlcNAc(b1-4)Man(a1-6)]Man(b1-4)GlcNAc(b1-4)GlcNAc
# Summary of the method: as §1
# [3] = target: Neu5Ac(a2-3)Gal(b1-4)GlcNAc(b1-2)[Neu5Ac(a2-3)Gal(b1-4)GlcNAc(b1-6)]Man(a1-6)[Neu5Ac(a2-3)Gal(b1-4)GlcNAc(b1-2)Man(a1-3)]Man(b1-4)GlcNAc(b1-4)GlcNAc
# Summary of the method: as §1
# [4] = target: Neu5Ac(a2-3)Gal(b1-4)GlcNAc(b1-2)[Neu5Ac(a2-3)Gal(b1-4)GlcNAc(b1-6)]Man(a1-6)[Neu5Ac(a2-3)Gal(b1-4)GlcNAc(b1-2)Man(a1-3)][GlcNAc(b1-4)]Man(b1-4)GlcNAc(b1-4)GlcNAc
# Summary of the method: as §1
# [5] = target: Neu5Ac(a2-3)Gal(b1-4)GlcNAc(b1-3)Gal
# Summary of the method: as §1
# [6] = target: Neu5Ac(a2-3)Gal(b1-4)GlcNAc(b1-3)Gal(b1-3)GlcNAc
# Summary of the method: as §1
# [7] = target: Neu5Ac(a2-3)Gal(b1-4)GlcNAc(b1-3)Gal(b1-4)GlcNAc
# Summary of the method: as §1
# [8] = target: Neu5Ac(a2-3)Gal(b1-4)GlcNAc(b1-3)Gal(b1-4)GlcNAc(b1-2)Man(a1-3)[Neu5Ac(a2-3)Gal(b1-4)GlcNAc(b1-3)Gal(b1-4)GlcNAc(b1-2)Man(a1-6)]Man(b1-4)GlcNAc(b1-4)GlcNAc
# Summary of the method: as §1
# [9] = target: Neu5Ac(a2-3)Gal(b1-4)GlcNAc(b1-3)Gal(b1-4)GlcNAc(b1-3)Gal(b1-4)GlcNAc
# Summary of the method: as §1
# [10] = target: Neu5Ac(a2-3)Gal(b1-4)GlcNAc(b1-3)Gal(b1-4)GlcNAc(b1-3)Gal(b1-4)GlcNAc(b1-2)Man(a1-3)[Neu5Ac(a2-3)Gal(b1-4)GlcNAc(b1-3)Gal(b1-4)GlcNAc(b1-3)Gal(b1-4)GlcNAc(b1-2)Man(a1-6)]GalNAc
# Summary of the method: as §1
# [11] = target: Neu5Ac(a2-3)Gal(b1-4)GlcNAc(b1-3)Gal(b1-4)GlcNAc(b1-3)GalNAc
# Summary of the method: as §1
# [12] = target: Neu5Ac(a2-3)Gal(b1-4)GlcNAc(b1-3)Gal(b1-4)GlcNAc(b1-3)[Neu5Ac(a2-3)Gal(b1-4)GlcNAc(b1-3)Gal(b1-4)GlcNAc(b1-6)]GalNAc
# Summary of the method: as §1
# [13] = target: Neu5Ac(a2-3)Gal(b1-4)GlcNAc(b1-3)Gal(b1-4)GlcNAc(b1-6)[Gal(b1-3)]GalNAc
# Summary of the method: as §1
# [14] = target: Neu5Ac(a2-3)Gal(b1-4)GlcNAc(b1-3)Gal(b1-4)[Fuc(a1-3)]GlcNAc
# Summary of the method: as §1
# [15] = target: Neu5Ac(a2-3)Gal(b1-4)GlcNAc(b1-3)GalNAc
# Summary of the method: as §1
# [16] = target: Neu5Ac(a2-3)Gal(b1-4)GlcNAc(b1-3)[Neu5Ac(a2-3)Gal(b1-4)GlcNAc(b1-6)]GalNAc
# Summary of the method: as §1
# [17] = target: Neu5Ac(a2-3)Gal(b1-4)GlcNAc(b1-6)GalNAc
# Summary of the method: as §1
# [18] = target: Neu5Ac(a2-3)Gal(b1-4)GlcNAc(b1-6)[Gal(b1-3)]GalNAc
# Summary of the method: as §1
# [19] = target: Neu5Ac(a2-3)Gal(b1-4)GlcNAc(b1-6)[Neu5Ac(a2-3)Gal(b1-3)]GalNAc
# Summary of the method: as §1
# [20] = target: Neu5Ac(a2-3)Gal(b1-4)GlcNAc6S
# Summary of the method: as §1
# [21] = target: Neu5Ac(a2-3)Gal(b1-4)[Fuc(a1-3)]GlcNAc
# Summary of the method: as §1
# [22] = target: Neu5Ac(a2-3)Gal(b1-4)[Fuc(a1-3)]GlcNAc(b1-2)Man
# Summary of the method: as §1
# [23] = target: Neu5Ac(a2-3)Gal(b1-4)[Fuc(a1-3)]GlcNAc(b1-3)Gal
# Summary of the method: as §1
# [24] = target: Neu5Ac(a2-3)Gal(b1-4)[Fuc(a1-3)]GlcNAc(b1-3)Gal(b1-4)GlcNAc
# Summary of the method: as §1
# [25] = target: Neu5Ac(a2-3)Gal(b1-4)[Fuc(a1-3)]GlcNAc(b1-3)Gal(b1-4)[Fuc(a1-3)]GlcNAc(b1-3)Gal(b1-4)[Fuc(a1-3)]GlcNAc
# Summary of the method: as §1
# [26] = target: Neu5Ac(a2-3)Gal(b1-4)[Fuc(a1-3)]GlcNAc(b1-3)GalNAc
# Summary of the method: as §1
# [27] = target: Neu5Ac(a2-3)Gal(b1-4)[Fuc(a1-3)]GlcNAc(b1-6)[Gal(b1-3)]GalNAc
# Summary of the method: as §1
# [28] = target: Neu5Ac(a2-3)Gal(b1-4)[Fuc(a1-3)]GlcNAc(b1-6)[Neu5Ac(a2-3)Gal(b1-3)]GalNAc
# Summary of the method: as §1
# [29] = target: Neu5Ac(a2-3)Gal(b1-4)[Fuc(a1-3)]GlcNAc6S
# Summary of the method: as §1
# [30] = target: Neu5Ac(a2-3)Gal6S(b1-4)GlcNAc
# Summary of the method: as §1
# [31] = target: Neu5Ac(a2-3)Gal6S(b1-4)[Fuc(a1-3)]GlcNAc
# Summary of the method: as §1
# [32] = target: Neu5Ac(a2-3)GalNAc
# Summary of the method: as §1
# [33] = target: Neu5Ac(a2-3)GalNAc(b1-4)GlcNAc
# Summary of the method: as §1
# [34] = target: Neu5Ac(a2-3)[GalNAc(b1-4)]Gal(b1-4)Glc
# Summary of the method: as §1
# [35] = target: Neu5Ac(a2-3)[GalNAc(b1-4)]Gal(b1-4)GlcNAc
# Summary of the method: as §1
# [36] = target: Neu5Ac(a2-3)[GalNAc(b1-4)]Gal(b1-4)GlcNAc(b1-3)GalNAc
# Summary of the method: as §1
# [37] = target: Neu5Ac(a2-3)[Neu5Ac(a2-6)]GalNAc
# Summary of the method: as §1
# [38] = target: Neu5Ac(a2-6)Gal
# Summary of the method: as §1
# [39] = target: Neu5Ac(a2-6)Gal(b1-3)GlcNAc(b1-3)[Gal(b1-4)GlcNAc(b1-6)]Gal(b1-4)Glc
# Summary of the method: as §1
# [40] = target: Neu5Ac(a2-6)Gal(b1-4)Glc
# Summary of the method: as §1
# [41] = target: Neu5Ac(a2-6)Gal(b1-4)GlcNAc
# Summary of the method: as §1
# [42] = target: Neu5Ac(a2-6)Gal(b1-4)GlcNAc(b1-2)Man
# Summary of the method: as §1
# [43] = target: Neu5Ac(a2-6)Gal(b1-4)GlcNAc(b1-2)Man(a1-3)Man(b1-4)GlcNAc(b1-4)GlcNAc
# Summary of the method: as §1
# [44] = target: Neu5Ac(a2-6)Gal(b1-4)GlcNAc(b1-2)Man(a1-3)[Gal(b1-4)GlcNAc(b1-2)Man(a1-6)]Man(b1-4)GlcNAc(b1-4)GlcNAc
# Summary of the method: as §1
# [45] = target: Neu5Ac(a2-6)Gal(b1-4)GlcNAc(b1-2)Man(a1-3)[GlcNAc(b1-2)Man(a1-6)]Man(b1-4)GlcNAc(b1-4)GlcNAc
# Summary of the method: as §1
binder,measurement,setting,value
B1,glycan array binding signal (z-score),[1],-0.169
same,glycan array binding signal (z-score),[2],-0.305
same,glycan array binding signal (z-score),[3],-0.25
same,glycan array binding signal (z-score),[4],-0.222
same,glycan array binding signal (z-score),[5],-0.357
same,glycan array binding signal (z-score),[6],-0.337
same,glycan array binding signal (z-score),[7],-0.183
same,glycan array binding signal (z-score),[8],-0.218
same,glycan array binding signal (z-score),[9],-0.249
same,glycan array binding signal (z-score),[10],-0.203
same,glycan array binding signal (z-score),[11],-0.295
same,glycan array binding signal (z-score),[12],-0.247
same,glycan array binding signal (z-score),[13],0.534
same,glycan array binding signal (z-score),[14],-0.181
same,glycan array binding signal (z-score),[15],-0.298
same,glycan array binding signal (z-score),[16],-0.263
same,glycan array binding signal (z-score),[17],-0.275
same,glycan array binding signal (z-score),[18],0.767
same,glycan array binding signal (z-score),[19],-0.19
same,glycan array binding signal (z-score),[20],-0.185
same,glycan array binding signal (z-score),[21],-0.298
same,glycan array binding signal (z-score),[22],-0.109
same,glycan array binding signal (z-score),[23],-0.063
same,glycan array binding signal (z-score),[24],0.019
same,glycan array binding signal (z-score),[25],-0.258
same,glycan array binding signal (z-score),[26],0.545
same,glycan array binding signal (z-score),[27],0.49
same,glycan array binding signal (z-score),[28],0.105
same,glycan array binding signal (z-score),[29],-0.175
same,glycan array binding signal (z-score),[30],-0.298
same,glycan array binding signal (z-score),[31],-0.236
same,glycan array binding signal (z-score),[32],-0.09
same,glycan array binding signal (z-score),[33],-0.332
same,glycan array binding signal (z-score),[34],-0.139
same,glycan array binding signal (z-score),[35],-0.174
same,glycan array binding signal (z-score),[36],-0.168
same,glycan array binding signal (z-score),[37],-0.342
same,glycan array binding signal (z-score),[38],-0.187
same,glycan array binding signal (z-score),[39],-0.145
same,glycan array binding signal (z-score),[40],-0.155
same,glycan array binding signal (z-score),[41],-0.156
same,glycan array binding signal (z-score),[42],-0.306
same,glycan array binding signal (z-score),[43],-0.228
same,glycan array binding signal (z-score),[44],-0.338
same,glycan array binding signal (z-score),[45],-0.238
